For 111 compounds, displacement results are on record in PubChem BioAssay AID1240 (Sanford-Burnham Center for Chemical Genomics, 2008).

Structures are written as SMILES. Among all 50,000 compounds or so, about 800 (1.6%) showed an effect of 50% or more. Some of the results follow.

The target of this test is Bcl-2-like protein 10 (Homo sapiens) (UniProt Q9HD36). In words: TR3 peptide-Bcl-B binding displacers, biochemical primary FP assay, phenotype converters (AID 1240).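 Note: 0% = Bcl-B with tracer peptide and DMSO and 100% = tracer peptide lacking Bcl-B.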 Particulars: GST-Bcl-B / FITC-TR3 peptide fluorescence polarization; stronger effect = higher value; compound at 3.75 mg/L. (Polarisation of emitted light reports the rotation of a fluorescent probe.)
UniProt Q9HD36, sequence (Q9HD36 whole entry, looked up): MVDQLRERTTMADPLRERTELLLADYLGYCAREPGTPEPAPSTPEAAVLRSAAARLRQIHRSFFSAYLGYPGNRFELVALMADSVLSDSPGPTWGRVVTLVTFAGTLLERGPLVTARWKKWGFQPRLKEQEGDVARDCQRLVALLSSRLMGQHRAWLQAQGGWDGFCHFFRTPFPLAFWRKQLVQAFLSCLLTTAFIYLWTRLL
As for `COc1cc(/C=N/n2cnnc2)cc(I)c1OCCOc1cc(C)ccc1C(C)C`, the displacement was -1.9%.

With `Cc1ccc(N2CC(C(=O)N/N=C/c3cccc(Br)c3)CC2=O)cc1` (stereo unspecified), the displacement was -8.3%.

Turning to `Cn1nnnc1SCc1ccc(F)cc1`, the displacement is -4%.

As to `CCOc1cccc(C(=O)Nc2cccnc2)c1`, the displacement turned out to be 10.8%.

As to `Cc1cc(C)cc(NCc2cccnc2)c1`, the displacement was found to be 15.1%.

`Cc1ccc(C)n1-n1cnc2sc3c(c2c1=O)CCCC3`: the displacement turned out to be 3.8%.

For the compound `C=CCN1C(=O)/C(=C\c2ccc(OCC(=O)O)c(OC)c2)C(=O)NC1=S`, the displacement was -8.8%.

As for `O=C(NCCNc1ccc(Cl)cc1[N+](=O)[O-])c1cc2ccccc2o1`, the displacement amounted to 3.1%.

On to `O=C1/C(=C/c2cccs2)SC(=S)N1Nc1ccccc1`, for which the displacement is -8.4%.

As to `O=C1C=CC(=NS(=O)(=O)c2ccc(Cl)c([N+](=O)[O-])c2)C=C1`, the displacement was -9.6%.

For the compound `COC(=O)C1=C(C)NC2=C(C(=O)CC(c3ccccc3)C2)C1c1cccc(I)c1` (stereo unspecified), the displacement is -1.7%.

Consider `COC(C(=O)N/N=C(\C)c1ccc2c(c1)OCCO2)c1ccccc1` (stereo unspecified), for which the displacement is -2.7%.

On to `COc1ccc(C2NC(=S)NC(C)=C2C(=O)Nc2ccccc2Cl)c(OC)c1` (stereo unspecified), for which the displacement is -25.2%.

Turning to `Cc1c(N/C=C/C(=O)c2ccc(Br)cc2)c(=O)n(-c2ccccc2)n1C`, the displacement is -4.2%.

On to `Cc1cc(C(=O)Nc2nc(-c3ccccc3)c(C)s2)ccc1[N+](=O)[O-]`, for which the displacement is -14.3%.

For the compound `COc1cc(C(=O)N=Nc2c(O)[nH]c3ccc(Br)cc23)cc(OC)c1OC`, the displacement was found to be 11.5%.

Take `CC(C)c1ccc(/C=C2\SC(=S)NC2=O)cc1[N+](=O)[O-]`: the displacement is -17.4%.

Turning to `CCOC(=O)c1csc(NC(=O)c2cc(OC)c(OC)c(OC)c2)n1`, the displacement was -17.8%.

In the case of `Cc1ccc([N+](=O)[O-])cc1NC(=S)NC(=O)c1ccc(Cl)cc1`, the displacement is -7.3%.

Consider `C/C(=N\NC(=O)c1[nH]nc(-c2ccccc2)c1C)c1ccc(O)cc1`, for which the displacement is -14.8%.

For the compound `Cc1ccc(C)c(OCCCCN2CCCC2)c1C`, the displacement was determined as 18.4%.

As for `CC1(C)Cc2ccccc2/C(=C(\C#N)C(=O)Nc2cccc([N+](=O)[O-])c2)N1`, the displacement was 18.3%.

Regarding `CC(=O)C1=C(C)NC(c2ccccc2)NC1c1ccccc1` (stereo unspecified), the displacement was determined as 4.5%.

For `Cc1ccc(C)c(OCC(O)CN2CCN(c3ccccc3)CC2)c1` (stereo unspecified), the displacement is -4%.

As to `COC(=O)c1ccc(/C=C2/SC(=O)N(CNc3ccc(OC)c(Cl)c3)C2=O)cc1`, the displacement is -5.7%.

Consider `O=C(c1ccc(Br)cc1)N1CCN(c2nc3ccc([N+](=O)[O-])cc3s2)CC1`, for which the displacement worked out at 3.2%.

On to `CCOC(=O)c1sc(NC(=O)c2ccc(OC)c(OC)c2)c(C(N)=O)c1C`, for which the displacement came to 6.3%.

For `COc1ccccc1C/C(N)=N/OC(=O)COc1ccc(C(C)(C)C)cc1`, the displacement is -11.6%.

For `C=CCN1C(=O)C(=O)c2cc(Br)ccc21`, the displacement was -3.8%.

As for `CCOc1ccc(NC(=O)c2ccc(I)cc2)cc1`, the displacement turned out to be 9.1%.

For the compound `COc1ccc(Br)cc1C(=O)Nc1ccc(-c2nc3cc(C)c(C)cc3o2)c(O)c1`, the displacement is 0.9%.

With `O=C(Nc1cc(NC(=O)C(F)(F)F)cc([N+](=O)[O-])c1)C(F)(F)F`, the displacement is -5.6%.

Turning to `COc1ccc2c(Cl)c(C(=O)N/N=C/c3ccccn3)sc2c1`, the displacement stood at 7.8%.

With `O=c1oc(-c2ccco2)nc2ccc(Br)cc12`, the displacement is 10.4%.

`C=CCN1C(=O)/C(=C\c2cc(Br)ccc2OCCOc2cccc(OC)c2)SC1=S`: the displacement was -43.6%.

Regarding `Cc1ccc(N2C(=O)Cn3c2nc2c3c(=O)n(C)c(=O)n2C)cc1Cl`, the displacement is -12.5%.

As to `CC(C)CN1C(=O)c2ccc(Oc3ccc([N+](=O)[O-])cc3)cc2C1=O`, the displacement was 10%.

Regarding `O=C(O)C1CC=CCC1C(=O)N1CCN(c2ccccc2)CC1` (stereo unspecified), the displacement came to 0.3%.

Take `O=C(NC1Sc2ccccc2N=C1c1ccccc1)c1ccco1` (stereo unspecified): the displacement is 5.4%.

Consider `NC(=S)N/N=C/c1cc2c(cc1[N+](=O)[O-])OCO2`, for which the displacement was -4.6%.

Consider `COc1ccccc1NC(=O)C(C)Oc1ccc(Cl)cc1C` (stereo unspecified), for which the displacement was -1.3%.

Take `OCc1nc2ccccc2n1Cc1ccccc1F`: the displacement was -0.5%.

For `COc1cc2ccccc2cc1C(=O)Nc1ccc(Cl)cn1`, the displacement amounted to 0.8%.

Regarding `COc1ccccc1-c1coc2c(CN(C)C)c(O)ccc2c1=O`, the displacement came to 12.5%.

In the case of `Cc1ccccc1N1C(=O)C(O)=C(C(=O)/C=C/c2ccccc2)C1c1ccc([N+](=O)[O-])cc1` (stereo unspecified), the displacement was -0.8%.

With `COc1cc(C(O)C[N+](=O)[O-])ccc1OCc1ccccc1` (stereo unspecified), the displacement is 8.7%.

`Cc1ccc(/C=C/C(=O)NC(=S)Nc2ccc(S(=O)(=O)N=C(N)N)cc2)cc1`: the displacement stood at 12.2%.

Consider `Cc1ccc(S(=O)(=O)NC(Cc2ccccc2)C(=O)Nc2nc3ccc(C)cc3s2)cc1` (stereo unspecified), for which the displacement was -5.1%.

Consider `COc1ccc(S(=O)(=O)N(CC(=O)Nc2ccc(C)cc2C)Cc2ccccc2)cc1OC`, for which the displacement is -72.4%.

Take `CN(C)c1ccc(-c2ncnn2-c2ccc(Cl)cc2)cc1`: the displacement turned out to be 0.1%.

With `COc1cccc(-c2csc(/C(C#N)=C/c3ccc(C)o3)n2)c1`, the displacement was -113%.

As to `Cc1ccc(OCCN2CCCC2)cc1C`, the displacement stood at 1.6%.

With `Cc1nc(SCC(=O)Nc2nnc(-c3ccccc3)s2)n[nH]1`, the displacement stood at 11.9%.

Consider `Cc1sc2nc(-c3ccc(OC(C)C)cc3)[nH]c(=O)c2c1C`, for which the displacement is -12.7%.

For `C1CCc2sc3c(c2CC1)c1nnnn1c1nnnn31`, the displacement worked out at 12.2%.

For `CCOC(=O)C1=C(O)/C(=C/c2ccc(F)cc2)SC1=Nc1ccccc1`, the displacement is -10.3%.

As for `CCOc1ccc(C(=O)NCc2ccco2)cc1`, the displacement was determined as 9.8%.

`COC(=O)C(C)Oc1cc2oc(=O)cc(-c3ccccc3)c2cc1Cl` (stereo unspecified): the displacement was 10.3%.

With `CCOC(=O)c1c(C)nc2ccc(Cl)cc2c1-c1ccccc1`, the displacement amounted to 11.8%.

As to `COc1ccc(CCNC(=O)CN(Cc2ccccc2)S(=O)(=O)c2ccc(OC)c(OC)c2)cc1`, the displacement is -5.7%.

Regarding `O=C(NCC1CCCO1)c1nn2c(c1Cl)NC(c1cccs1)CC2C(F)(F)F` (stereo unspecified), the displacement is -0.1%.

As to `CC(=O)c1ccc(NC(=O)c2cc(=O)[nH]c3ccccc23)cc1`, the displacement was found to be 8.9%.

Turning to `CC(C)(CO)N=C1NS(=O)(=O)c2cc([N+](=O)[O-])ccc21`, the displacement was -16.2%.

As to `COc1ccccc1C(=O)O/N=C1/C(=O)N(C)c2ccccc21`, the displacement was -10%.

Take `COc1ccc(C2=NN(c3nc(-c4ccc(F)cc4)cs3)C(c3ccc(OC)cc3)C2)cc1` (stereo unspecified): the displacement amounted to 12%.

With `COc1ccccc1OCCCOc1c(Cl)cccc1Cl`, the displacement stood at 4.5%.

For the compound `OC(COc1ccc(Br)cc1)Cn1cnc2ccccc21` (stereo unspecified), the displacement was -13.4%.

In the case of `CC(=O)Nc1ccc(C(=O)Nc2ccc(Br)cc2C)cc1`, the displacement is -10.4%.

For `CCOC(=O)c1c(-c2ccc(-c3ccccc3)cc2)csc1NC(=O)C1CC1`, the displacement was determined as 9.6%.

For the compound `O=[N+]([O-])c1ccccc1S(=O)(=O)NC1CCS(=O)(=O)C1` (stereo unspecified), the displacement amounted to 9.8%.

On to `O=C1CC(c2ccc(Cl)c([N+](=O)[O-])c2)c2cc(Br)c3ccccc3c2N1` (stereo unspecified), for which the displacement was -3%.

In the case of `COc1ccc(C(=O)/C=C/Nc2ccc(Br)c(Cl)c2)cc1`, the displacement was found to be 11.8%.

For the compound `O=C(CCC1CCCC1)NC1CCCCCCC1`, the displacement amounted to 0%.

For `COC(=O)C1=C(C)NC2=C(C(=O)CCC2)C1c1ccc(Br)cc1` (stereo unspecified), the displacement is 6.2%.

In the case of `Cc1cc(Cl)ccc1NCC(=O)NN`, the displacement is -8.7%.

For `O=C(CC1Sc2ccccc2NC1=O)Nc1ccccc1NC(=O)CC1Sc2ccccc2NC1=O` (stereo unspecified), the displacement was determined as 9%.

Turning to `COC(=O)C1=C(C)N(Cc2ccc(OC)cc2)C(=O)/C1=C\c1ccc([N+](=O)[O-])cc1`, the displacement was -37.1%.

With `O=C(CCN1C(=O)/C(=C\c2ccc(Cl)cc2)SC1=S)Nc1ccc(C(=O)O)cc1`, the displacement is -10.5%.

For the compound `Cc1ccc(C(=O)C(C(=O)C(=O)Nc2ccccc2)C(c2ccccc2)c2ccccc2)cc1` (stereo unspecified), the displacement is 14.7%.

Turning to `O=C(COc1ccccc1)Nc1cccc(-c2nc3ccccc3[nH]2)c1`, the displacement was determined as 15.5%.

Turning to `Cc1csc(-c2cc3ccc(OCc4c(F)cccc4Cl)cc3oc2=O)n1`, the displacement was 9.8%.

On to `N=c1c2c3c(sc2nc2n1CCCCC2)CCCC3`, for which the displacement was -4.8%.

Regarding `COc1ccccc1NS(=O)(=O)c1ccc(Cl)c([N+](=O)[O-])c1`, the displacement amounted to 4.1%.

On to `N/C(=N\OC(=O)c1cccc(Cl)c1)c1cccnc1`, for which the displacement is -10.1%.

Turning to `CC1=CCCC(C)(C)C1C(=O)CC(C)Nc1ccccc1` (stereo unspecified), the displacement was determined as 9.2%.

On to `COc1ccccc1C(=O)N1CCN(Cc2cccnc2)CC1`, for which the displacement was -19.4%.

Take `O=S(=O)(CCc1nc2ccccc2o1)c1ccc(Cl)cc1`: the displacement was 3.8%.

As for `COc1ccc(/C=N/NS(=O)(=O)c2ccc(Cl)cc2)cc1`, the displacement amounted to 1.1%.

Turning to `O=C(Nc1nc(-c2cccs2)cs1)c1ccc(Cl)cc1Cl`, the displacement came out at 10.5%.

In the case of `Cc1cccc(C(=O)Nc2ccc3nn(-c4ccc(F)cc4)nc3c2)c1`, the displacement is -27.5%.

Turning to `NC(=O)CSc1nc(-c2ccccc2)c(-c2ccccc2)o1`, the displacement is -7.3%.

Turning to `O=C(NCCOC(=O)c1ccc2c(c1)OCO2)c1cccnc1`, the displacement was 36.4%.

As for `Cc1cc(Nc2ccccc2)n2c(nc3ccccc32)c1C#N`, the displacement was -2.8%.

As to `Cc1ccc(-c2ccccc2)n1-c1ccc2c(c1)OCO2`, the displacement is -4.9%.

Take `COc1cccc(-c2nc(-c3ccc(Cl)cc3Cl)no2)c1`: the displacement was 4.5%.

Regarding `N/C(=N\OC(=O)c1ccccc1[N+](=O)[O-])c1ccc(Cl)cc1`, the displacement was -6%.

As for `O=C(COc1ccc(Cl)cc1Br)NNC(=O)c1ccccc1F`, the displacement was -8.7%.

With `COC(=O)CN1C(=O)/C(=C\c2ccc(Cl)cc2)SC1=S`, the displacement is -8%.

Regarding `Cc1ccccc1-c1nc2sc3c(c2c(=O)o1)CCCC3`, the displacement worked out at 11.3%.

For `C=CCOc1cccc(/C=N/NC(=O)C(=O)NCc2cccnc2)c1`, the displacement was 3.8%.

`COc1cc(C(=O)N2CCN(C3CCC(c4ccccc4)CC3)CC2)cc(OC)c1OC` (stereo unspecified): the displacement is -13.1%.

Regarding `CC(=O)C1=C(O)C(=O)N(CC2CCCO2)C1c1ccccc1[N+](=O)[O-]` (stereo unspecified), the displacement came to 6.3%.

Take `CCOc1ccc(/C=C/C(=O)N(C)Cc2ccccc2)cc1OC`: the displacement was 16.4%.

For the compound `CC(=O)n1c2ccccc2c2nc3ccc([N+](=O)[O-])cc3cc21`, the displacement was 15.4%.

As to `O=C(O)CCN1C(=O)/C(=C2\C(=O)N(Cc3ccccc3Cl)c3ccccc32)SC1=S`, the displacement is -1.3%.

As for `O=C(COC(=O)c1ccco1)c1ccc(Cl)cc1`, the displacement is -1%.

Turning to `COc1ccc(CC(C)CC(=O)NCCc2ccc(OC)c(OC)c2)cc1` (stereo unspecified), the displacement worked out at 9%.

Consider `CCOC(=O)c1c[nH]c2ccc(Br)cc2c1=O`, for which the displacement was -10.2%.

For the compound `Cc1ccc(Cl)cc1N(Cc1ccc(C(=O)NCc2ccco2)cc1)S(=O)(=O)c1ccccc1`, the displacement came to 0.5%.

`Cc1ccc(C2(CC(=O)O)CCOC(C)(C)C2)cc1` (stereo unspecified): the displacement is -6.5%.

Consider `O=C1C2C(c3ccccc3)OC3(C(=O)c4ccccc4C3=O)C2C(=O)N1c1cccc(Cl)c1` (stereo unspecified), for which the displacement was -4.8%.
